Measured values taken from PubChem BioAssay AID686979 (National Center for Advancing Translational Sciences (NCATS), 2013).
Where “and” joins values, the source holds several entries; their conditions need not be identical. Equal values may be shown once. Out of some 420,000 compounds screened, about 50,000 (12%) were called active. The shares of active, inactive and inconclusive entries below differ from those in the screen. Calls follow the shape of the dose curve; as a rule, active = well fitted inhibition curve with a large enough effect; inconclusive = small, poorly fitted or top-dose-only effect; inactive = flat fitted curve, though single readings scatter. A potency beside an inconclusive call is a rough fit, not a confirmed value.
% is scaled to controls: 0 for no effect and ±100 for the full control effect; potency is read from the fitted curve at half-maximal effect; tags tell the direction and shape of the fitted curve.

Assay: qHTS for Inhibitors of human tyrosyl-DNA phosphodiesterase 1 (TDP1): qHTS in cells in presence of CPT; also: nearly all actives have a fitted effect of over 55% in size
Conditions: chicken DT40 Tdp1-/-;hTDP1 cells + 20 nM CPT, ATP luminescence, 48 h; activity change, negative = growth inhibition: at 46.2 µM (top of the series)
Outline: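 Chicken DT40 Tdp1-/- cells stably complemented with human TDP1 were seeded at 400 cells/well in medium containing 20 nM camptothecin, exposed to pin-transferred compounds, and grown at 37 °C for at least 48 hr. Viability was read as ATP luminescence.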
With Cc1ccc(S(=O)(=O)NCC(=O)OCC(=O)c2c(N)n(C)c(=O)n(C)c2=O)cc1 the activity change, negative = growth inhibition was inconclusive: -30.9% [inhibitor]. In the case of CCOc1ccc(NC(=O)CSc2nc3ccsc3c(=O)n2Cc2ccc(C(=O)O)cc2)cc1, the “activity change, negative = growth inhibition” value is reported as inactive: -5.2%. In the case of COc1ccc(OCC(=O)NNC(=S)NC(=O)C2CC2)cc1, the Potency is reported as active: 16.4 µM. For Cc1cn([C@H]2C[C@H](O)[C@@H](CNC(=O)[C@H](N)C3CC3)O2)c(=O)[nH]c1=O, the “activity change, negative = growth inhibition” value was inactive: -11.5%. For O=C(NC(NC(=S)Nc1cccc(Cl)c1)C(Cl)(Cl)Cl)OCc1ccccc1 (configuration not stated), the Potency was inconclusive: 20.6 µM [inhibitor, single point]. With COc1ccccc1NS(=O)(=O)c1ccc(C(=O)NCCCn2ccnc2)cc1 the “activity change, negative = growth inhibition” value was inactive: -15.7%. With Nc1ccc(Nc2nc(-c3ccncc3)cs2)cc1 the Potency was inconclusive: 18.4 µM [inhibitor, partial curve]. With COC(=O)c1ccc(OCC(O)CN2CCN(CC(O)COc3ccc(C(=O)OC)cc3)CC2)cc1 (configuration not stated) the Potency was inconclusive: 16.4 µM [inhibitor, partial curve]. For CCCCn1c(N)c(N(CC)C(=O)c2cc3c(s2)CCCCC3)c(=O)[nH]c1=O, the “activity change, negative = growth inhibition” value was inactive: -16.5%. In the case of CC(C)c1ccc(N2C(=O)C(Cl)=C(N3CCOCC3)C2=O)cc1, the Potency is reported as inconclusive: 16.4 µM [inhibitor, single point]. For Cn1c(Sc2ccc([N+](=O)[O-])cc2C(F)(F)F)nnc1-c1ccccc1, the Potency was inconclusive: 23.1 µM [inhibitor, partial curve, poor fit]. With Cc1ccc(OCCCn2c(-c3ccc(Cl)cc3)nc3ccccc3c2=O)c(C)c1 the “activity change, negative = growth inhibition” value was inactive: -1.63%. With CCOc1ccc(NC(=O)c2nc(S(=O)(=O)Cc3ccc(F)cc3)ncc2Cl)cc1 the Potency was active: 0.501 µM. For O=C(N=NC(=O)c1ccc2c(O)n(C3CCCCC3)c(O)c2c1)c1cccnc1, the Potency was inconclusive: 16.4 µM [inhibitor, single point]. With Cc1cccc(-n2c(=O)c3c4c(sc3n3c(C)nnc23)CCCC4)c1 the activity change, negative = growth inhibition was inconclusive: -32.4% [inhibitor]. For Nc1c(C(=O)Nc2ccccc2)sc2nc3c(cc12)CN(Cc1ccccc1)CC3, the Potency was inconclusive: 23.1 µM [inhibitor, single point]. For Clc1ccc(-n2c(Cc3ccccc3)nnc2SCc2nc(-c3cccs3)no2)cc1, the Potency was inconclusive: 29.1 µM [inhibitor, single point]. With CCCCCCC(=O)N(O)C1CC(=O)N(Cc2ccccc2)C1=O (configuration not stated) the Potency was active: 13 µM. With CCCn1c(=O)c2ccccc2n2c(SCc3c(C(=O)OCC)oc4ccccc34)nnc12 the Potency was inconclusive: 13 µM [inhibitor, partial curve]. With Cc1c(N/C(=N/S(=O)(=O)c2cc([N+](=O)[O-])ccc2Cl)c2ccccc2)c(=O)n(-c2ccccc2)n1C the “activity change, negative = growth inhibition” value was inactive: 12.3%. For C=CC(=O)Oc1ccc(N2Cc3ccccc3C2=O)cc1, the Potency was active: 3.66 µM. For Cc1ccc(NC(=O)C2CCCN(S(=O)(=O)c3c(C)noc3C)C2)cc1 (configuration not stated), the Potency was inconclusive: 13 µM [inhibitor, partial curve] and inconclusive: 11.6 µM [inhibitor, partial curve]. In the case of COc1ccc(Cc2c(-c3ccccc3)nc3c(C)cc(Br)cn23)c(C)c1, the Potency is reported as active: 16.4 µM. In the case of c1ccc(-c2cn(C[C@H]3CC[C@@H]([C@@H]4CC[C@H](Cn5cc(-c6ccccc6)nn5)O4)O3)nn2)cc1, the Potency is reported as active: 25.9 µM. With O=C(NC(c1ccc(Cl)cc1)c1ccsc1)C1CCN(Cc2ccc(Oc3ccccc3)cc2)CC1 (configuration not stated) the Potency was active: 2.59 µM. In the case of Oc1cccc(Nc2nc(NCC3CCCO3)c3ccccc3n2)c1 (configuration not stated), the Potency is reported as active: 16.4 µM. With COc1ccc(CC(=O)N(C)Cc2ccc(Cl)cc2)cc1S(=O)(=O)N1CCOCC1 the activity change, negative = growth inhibition was inconclusive: -31.2% [inhibitor]. For COc1cc(CNC(=O)Nc2nc(C(N)Cc3ccc(C(F)(F)F)cc3)cs2)cc(OC)c1OC (configuration not stated), the Potency was active: 13 µM. With C=CCSc1n[nH]c(-c2cccs2)n1 the “activity change, negative = growth inhibition” value was inactive: 0.567%. With CSc1ccccc1NC(=O)CSc1n[nH]c(N)n1 the “activity change, negative = growth inhibition” value was inactive: -0.337%. In the case of CCCCCN(C(=O)CCC(=O)OCc1cccc(F)c1)c1c(N)n(CCCC)c(=O)[nH]c1=O, the “activity change, negative = growth inhibition” value is reported as inactive: 2.44%. For O=C(Nc1nccs1)c1cc(-c2ccco2)nc2ccccc12, the Potency was inconclusive: 25.9 µM [inhibitor, single point]. In the case of CCCCN(C)C(=O)c1ccc2c(c1)N(Cc1cccc(F)c1)C(=O)c1ccccc1S2, the Potency is reported as inconclusive: 23.1 µM [inhibitor, single point]. In the case of O=C(NC(=S)N1CCN(Cc2ccc3c(c2)OCO3)CC1)c1ccc(Cl)cc1, the Potency is reported as inconclusive: 29.1 µM [inhibitor, single point]. In the case of O=C(Nc1nc(-c2ccc3c(c2)OCCO3)cs1)C1CCCC1, the Potency is reported as inconclusive: 29.1 µM [inhibitor, single point]. In the case of Cc1ccc(-n2c(=O)[nH]c3c(C(N)=O)nc(C(C)C)nc32)cc1, the “activity change, negative = growth inhibition” value is reported as inactive: -25.7%. In the case of Cc1ccc(C)c(OCC(O)CNC2CCCC2)c1 (configuration not stated), the “activity change, negative = growth inhibition” value is reported as inactive: -25.3%. For CSc1ncnc2c1ncn2CCCNCC1CCCO1 (configuration not stated), the “activity change, negative = growth inhibition” value was inactive: 6.98%. For Cc1ccc(C(=O)CC(=O)c2ccc(C(C)(C)C)cc2)cc1, the Potency was inconclusive: 29.1 µM [inhibitor, single point]. In the case of O=C(NNC(=O)C1CC1c1ccccc1)c1ccccc1F (configuration not stated), the “activity change, negative = growth inhibition” value is reported as inactive: 1.12%. With CCCSc1ccc([C@H]2N[C@@](Cc3ccccc3)(C(=O)OC)[C@H]3C(=O)N(CC)C(=O)[C@@H]23)cc1 the Potency was active: 18.4 µM. In the case of Oc1ccc2ccccc2c1C=NCc1ccccc1, the Potency is reported as inconclusive: 18.4 µM [inhibitor, single point]. For COc1ccc(NC(=O)c2cc3ccc4c5ccccc5[nH]c4c3cc2O)cc1, the “activity change, negative = growth inhibition” value was inactive: -0.0943%. For Cc1cccc(N(CC(=O)NCCSCc2ccccc2)S(=O)(=O)c2ccccc2)c1C, the Potency was active: 23.1 µM. With Cn1ncc(Cl)c1C(=O)NCc1ccc2c(c1)OCO2 the Potency was inconclusive: 25.9 µM [inhibitor, single point]. For CCOc1ccccc1C(=O)N[C@H](C(=O)OCc1cc(=O)oc2cc(C)ccc12)C(C)C, the Potency was active: 6.51 µM. For COc1ccc(Nc2nnc(SCC(=O)NC(=O)Nc3ccc4c(c3)OCCO4)s2)cc1, the Potency was inconclusive: 23.1 µM [inhibitor, single point].
